# Measurements: the supplement of paper PMC8728848
# Some of the results follow.
# Columns and labels:
# Test in all cases: glycan array binding signal (z-score within array); higher = stronger binding
# Settings in all cases: glycan notation: IUPAC condensed, linker removed
# [1] = biological target: Neu5Ac(a2-6)GlcNAc(b1-4)GlcNAc(b1-4)GlcNAc
# Outline: (§1)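 From the Consortium for Functional Glycomics database, 3228 arrays were curated, keeping only those whose protein sequence was available. Binding is given as a within-array Z-score averaged across arrays sharing a protein sequence and across linkers. Negative Z-scores can be read as non-binding.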
# Neu5Ac(a2-8)Neu5Ac = biological target: Neu5Ac(a2-8)Neu5Ac
# Outline: as §1
# [2] = biological target: Neu5Ac(a2-8)Neu5Ac(a2-3)Gal(b1-3)GalNAc(b1-4)[Neu5Ac(a2-3)]Gal(b1-4)Glc
# Outline: as §1
# [3] = biological target: Neu5Ac(a2-8)Neu5Ac(a2-3)Gal(b1-3)GalNAc(b1-4)[Neu5Ac(a2-8)Neu5Ac(a2-3)]Gal(b1-4)Glc
# Outline: as §1
# [4] = biological target: Neu5Ac(a2-8)Neu5Ac(a2-3)Gal(b1-4)Glc
# Outline: as §1
# [5] = biological target: Neu5Ac(a2-8)Neu5Ac(a2-3)Gal(b1-4)GlcNAc
# Outline: as §1
# [6] = biological target: Neu5Ac(a2-8)Neu5Ac(a2-3)[Gal(b1-3)GalNAc(b1-4)]Gal(b1-4)Glc
# Outline: as §1
# [7] = biological target: Neu5Ac(a2-8)Neu5Ac(a2-3)[GalNAc(b1-4)]Gal(b1-4)Glc
# Outline: as §1
# [8] = biological target: Neu5Ac(a2-8)Neu5Ac(a2-8)Neu5Ac
# Outline: as §1
# [9] = biological target: Neu5Ac(a2-8)Neu5Ac(a2-8)Neu5Ac(a2-3)Gal(b1-4)Glc
# Outline: as §1
# [10] = biological target: Neu5Ac(a2-8)Neu5Ac(a2-8)Neu5Ac(a2-3)[Gal(b1-3)GalNAc(b1-4)]Gal(b1-4)Glc
# Outline: as §1
# [11] = biological target: Neu5Ac(a2-8)Neu5Ac(a2-8)Neu5Ac(a2-3)[GalNAc(b1-4)]Gal(b1-4)Glc
# Outline: as §1
# [12] = biological target: Neu5Ac(a2-8)Neu5Ac(a2-8)Neu5Ac(a2-8)Neu5Ac(a2-3)[GalNAc(b1-4)]Gal(b1-4)Glc
# Outline: as §1
# [13] = biological target: Neu5Ac(a2-8)Neu5Gc(a2-3)Gal(b1-4)GlcNAc
# Outline: as §1
# [14] = biological target: Neu5Ac(b2-6)Gal(b1-4)GlcNAc
# Outline: as §1
# Neu5Ac(b2-6)GalNAc = biological target: Neu5Ac(b2-6)GalNAc
# Outline: as §1
# [15] = biological target: Neu5Ac9Ac(a2-3)Gal(b1-3)GlcNAc
# Outline: as §1
# [16] = biological target: Neu5Ac9Ac(a2-3)Gal(b1-4)GlcNAc
# Outline: as §1
# [17] = biological target: Neu5Ac9Ac(a2-6)Gal(b1-4)GlcNAc
# Outline: as §1
# [18] = biological target: Neu5Gc(a2-3)Gal(b1-3)GlcNAc
# Outline: as §1
# [19] = biological target: Neu5Gc(a2-3)Gal(b1-3)[Fuc(a1-4)]GlcNAc
# Outline: as §1
# Neu5Gc(a2-3)Gal(b1-4)Glc = biological target: Neu5Gc(a2-3)Gal(b1-4)Glc
# Outline: as §1
# [20] = biological target: Neu5Gc(a2-3)Gal(b1-4)GlcNAc
# Outline: as §1
# [21] = biological target: Neu5Gc(a2-3)Gal(b1-4)GlcNAc(b1-3)Gal(b1-4)GlcNAc(b1-2)Man(a1-3)[Neu5Gc(a2-3)Gal(b1-4)GlcNAc(b1-3)Gal(b1-4)GlcNAc(b1-2)Man(a1-6)]Man(b1-4)GlcNAc(b1-4)GlcNAc
# Outline: as §1
# [22] = biological target: Neu5Gc(a2-3)Gal(b1-4)[Fuc(a1-3)]GlcNAc
# Outline: as §1
# [23] = biological target: Neu5Gc(a2-6)Gal(b1-4)GlcNAc
# Outline: as §1
# Neu5Gc(a2-6)GalNAc = biological target: Neu5Gc(a2-6)GalNAc
# Outline: as §1
# [24] = biological target: Neu5Gc(a2-8)Neu5Ac(a2-3)Gal(b1-4)GlcNAc
# Outline: as §1
# [25] = biological target: Neu5Gc(a2-8)Neu5Gc(a2-3)Gal(b1-4)GlcNAc
# Outline: as §1
# [26] = biological target: Neu5Gc(a2-8)Neu5Gc(a2-3)Gal(b1-4)GlcNAc(b1-3)Gal(b1-4)GlcNAc
# Outline: as §1
# [27] = biological target: Neu5Gc(a2-8)Neu5Gc(a2-6)Gal(b1-4)GlcNAc
# Outline: as §1
# [28] = biological target: Neu5Gc(b2-6)Gal(b1-4)GlcNAc
# Outline: as §1
binder,measurement,setting,value
"InvD YPIII (Yersinia pseudotuberculosis), B1JSC0 (protein) MIKYFSFFKKPEPIVGILPNRQSHHILPTHIRRVAWGTLLLQLFIPLSVSFSPAIAAMKASKADTMVSYSSTEPYVLGSGETVAMVAKKYGITVDELKKINIYRTFSRPFTALTTGDEIDIPRKASPFSVDNNKDNRLSVENTLAGHAVAGATALSNGDVAKSGERMVRSAASNEFNNSAQQWLSQFGTARVQLNINDDFHLDGSAADVLIPLYDNEKSILFTQLGARNKDSRNTVNMGAGVRTFQGNWMYGANTFFDNDLTGKNRRIGVGAEAWTDYLKLSANNYFGITDWHQSRDFIDYNERPANGYDLRAEAYLPSYPQLGGKAMYEKYRGDDVALFGKDNRQKNPHAITAGVNYTPIPLVTIGAEHRAGKGGQNDSNINFQLNYRLGETWQSHIDPSAVAASRTLAGSRYDLVERNNHIVLDYQKQNLVRLSLPDSLAGDPFSQLSVTAQVTATHGLERIDWQSAELMAAGGVLKQTSKNGLEITLPEYQMNRTGGNSYILNAIAYDTQGNASSQASMLITVNAQKINIANSTLVAVPINIEANNSDTSVVTLTLKDDNNIPVTGQDVTFLSPLGTLSAMTDSGNGVYTATLTAGTVSGTTAVSSNINGSALDMTPATVTLNGNSGELSITHSMLVAAPVNIEANGSDTSVVTLTLRDSNNNPVTGQTVTFAGTLGTLGAVTEGSSGVYTATLTAGIMVGTSSITASVNSTALGVTPATVTLNGDSGNLSTTNSTLVAAPVNIEANSSDTSVVTLTLRDNNNNPVTGQTVVFTSTLGTLGNVTEQASGVYTATLTAGTVSGVASLSVSVGGNALGVTPATVTLNGDSGNLSTTNSTLVAAPVNIEANSSDTSVVTLTLRDNNNNPVTGQTVNFAGTLGTLGTVSEGSSGVYTTTLTAGTVAGVASLSVNVGGNALGVTPATVTLNGNSGNLSATNSTLVAAPVNIEANSSDTSVVTLTLRDNNNNPVTGQTVAFTSTLGTLGNVTEQASGVYTATLTAGTVSGVASLSVSVNSNALGVTPATVTLNGDSGNLSTTNSTLVAAPVNIEANSSDTSVVTLTLRDNNNNPVTGQTVAFTSTLGTLGNVTEQASGLYTATLTAGTVSGVASLSVNVGGNALGVTPATVTLNGDSGNLSATNSTLVAAPVNIEANSSDTSVVTLTLRDNNNNPVTGQTVAFTSTLGTLGNVTEQASGLYTATLTAGTVSGVASLSVNVGGTALGVTPATVTLNGDSGNLSTTNSTLVAAPVNIEANSSDTSVVTLTLRDNNNNPVTGQTVAFTSTLGTLGNVTEQASGLYTATLTAGTVSGVASLSVSVNSTALGVTPATVTLNGDSGNLSTTNSTLVAAPVNIEANSSDTSVVTLTLRDNNNNPVTGQTVAFTSTLGTLGNVTEQASGVYTATLTAGTVAGVASLSVNVGGNALGVTPATVTLNGDSGNLSTTNSTLVAAPVNIEANSSDTSVVTLTLRDNNNNPVTGQTVAFTSTLGTLGNVTEQASGVYTATLTAGTVSGVASLSVSVGSSALGVTPATVTLNGDSGNLSTTNSTLVAAPVNIEANNSDTSVVTLTLRDNNNNPVTGQTVAFTSTLGTLGNVTEQASGVYTATLTAGTVSGVASLSVSVNSNALGVTPATVTLNGDSGNLSTTNSTLVAAPVNIEANSSDTSVVTLTLRDNNNNPVTGQTVVFTSTLGTLGNVTEQASGLYTATLTAGTVSGVASLSVSVGGNALGVTGNITLAPGALDAARSILAVNKPSINADDRIGSTITFTAQDAQGNAITGLDIAFMTDLENSQIMTLVDHNDGTYTANINGTQTGIANIAVQSSGATIAGLAATMVTITPGAWNTTQATPVMTVALPITTCQSSSGVYKRYYIGIVTHELYDNYGNEISGILTYNLGAGRYTTVTSQNSSVSGSNGLTRRSNSPVSHFILTSDAYTSQAACYAERIANVNVTITVTAITDDFKTSAVNKVFILGTGSN",glycan array binding signal (z-score),[1],-0.339
same,glycan array binding signal (z-score),Neu5Ac(a2-8)Neu5Ac,-0.096
same,glycan array binding signal (z-score),[2],-0.023
same,glycan array binding signal (z-score),[3],-0.022
same,glycan array binding signal (z-score),[4],-0.211
same,glycan array binding signal (z-score),[5],-0.179
same,glycan array binding signal (z-score),[6],-0.061
same,glycan array binding signal (z-score),[7],-0.107
same,glycan array binding signal (z-score),[8],-0.347
same,glycan array binding signal (z-score),[9],-0.093
same,glycan array binding signal (z-score),[10],-0.05
same,glycan array binding signal (z-score),[11],-0.233
same,glycan array binding signal (z-score),[12],-0.363
same,glycan array binding signal (z-score),[13],-0.23
same,glycan array binding signal (z-score),[14],-0.095
same,glycan array binding signal (z-score),Neu5Ac(b2-6)GalNAc,0.163
same,glycan array binding signal (z-score),[15],0.008
same,glycan array binding signal (z-score),[16],-0.152
same,glycan array binding signal (z-score),[17],-0.3
same,glycan array binding signal (z-score),[18],-0.296
same,glycan array binding signal (z-score),[19],-0.472
same,glycan array binding signal (z-score),Neu5Gc(a2-3)Gal(b1-4)Glc,-0.223
same,glycan array binding signal (z-score),[20],-0.352
same,glycan array binding signal (z-score),[21],0.122
same,glycan array binding signal (z-score),[22],-0.293
same,glycan array binding signal (z-score),[23],-0.106
same,glycan array binding signal (z-score),Neu5Gc(a2-6)GalNAc,-0.093
same,glycan array binding signal (z-score),[24],-0.373
same,glycan array binding signal (z-score),[25],-0.373
same,glycan array binding signal (z-score),[26],0.086
same,glycan array binding signal (z-score),[27],-0.317
same,glycan array binding signal (z-score),[28],0.042
